Results as given in publication PMC6398391 (The FEBS journal, 2018).

Target: c-MYC HLHZip (residues 368-437) (human, UniProt P01106-1 partial chain)
Assay: co-expression and co-purification (Ni affinity); MYC and MAX regions coexpressed in E. coli from a polycistronic mRNA; the dimer purified on a HisTRAP column at 25 °C
Conditions: partners not purified

- binding result: binds
B1: MAX HLHZip ([…]) (domain or fragment)
chain: not shown
